Data reported in the supplement of paper PMC10502849.
Counter-ions that a name gives are not always drawn. Some of the results follow. Single values are uncertain, as repeats are few or missing.

Experiments:
[1] = test system: H9 teratoma-derived LAM model cells, TSC2-/-; test: percent SyTOX+ dead cells; higher = more cytotoxic; conditions: 5 µM, treatment time 72 h, culture: 3D hyaluronic acid hydrogel
[2] = test system: H9 teratoma-derived LAM model cells, WT; test: percent SyTOX+ dead cells; higher = more cytotoxic; conditions: 5 µM, treatment time 72 h, culture: 3D hyaluronic acid hydrogel, genotype: WT
[3] = test system: H9 teratoma-derived LAM model cells, TSC2-/-; test: percent of cells invaded past median invasion distance of vehicle control; LAM is lymphangioleiomyomatosis; the cells come from teratomas of the human stem cell line H9; higher = more invasion; extreme values may be limits of the assay; conditions: 5 µM, treatment time 72 h, culture: 3D hyaluronic acid hydrogel
[4] = test system: H9 teratoma-derived LAM model cells, WT; test: as above; conditions: 5 µM, treatment time 72 h, culture: 3D hyaluronic acid hydrogel, genotype: WT
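Throughout, for percent SyTOX+ dead cells: cells seeded atop a hyaluronic acid gel crosslinked via MMP-cleavable peptides, containing vitronectin peptides and methylcellulose, imaged live by high-content microscopy with automated analysis, one technical replicate per compound.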
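Throughout, for percent of cells invaded past median invasion distance of vehicle control: live cells imaged by high content microscopy and scored with in-house automated image analysis, one technical replicate per compound in each genotype and rapamycin condition.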

Row | SMILES | percent SyTOX+ dead cells ([1]; rapamycin 0 nM) [%] | percent SyTOX+ dead cells ([1]; rapamycin 20 nM) [%] | percent SyTOX+ dead cells ([2]; rapamycin 0 nM) [%] | percent SyTOX+ dead cells ([2]; rapamycin 20 nM) [%] | percent ([3]; rapamycin 0 nM) [%] | percent ([3]; rapamycin 20 nM) [%] | percent ([4]; rapamycin 0 nM) [%] | percent ([4]; rapamycin 20 nM) [%]
1 | Cc1cnc(Nc2ccc(OCCN3CCCC3)cc2)nc1Nc1cccc(S(=O)(=O)NC(C)(C)C)c1 | 28.5 | 17.8 | 31.1 | 24.4 | 50 | 75.8 | 57.3 | 57.3
2 | CCN1CCN(Cc2ccc(-c3cc4c(N[C@H](C)c5ccccc5)ncnc4[nH]3)cc2)CC1 | 9.09 | 7.28 | 49.5 | 43.6 | 46 | 23.2 | 4.64 | 2.56
3 | Cc1cnc(-c2cnc(NCCNc3ccc(C#N)cn3)nc2-c2ccc(Cl)cc2Cl)[nH]1 | 10.1 | 12.7 | 11.7 | 10.7 | 12 | 33 | 11.3 | 53.3
4 | O=C1NCc2c1c1c3ccccc3[nH]c1c1[nH]c3ccccc3c21 [K-252c, Staurosporine Aglycone] | 21.4 | 17.6 | 27.8 | 34.2 | 3.57 | 5.6 | 7.41 | 1.8
5 | CCN(CC)CC1CCN(c2ncc3ncnc(Nc4ccc(F)c(Cl)c4)c3n2)CC1 [BIBU 1361 dihydrochloride] | 29.5 | 21.3 | 31.2 | 21.6 | 25.1 | 17.4 | 13.9 | 7.02
6 | CCOc1ccc(Nc2nc(-c3c(C)nc4ccccn34)cs2)cc1 [SHH Antagonist, JK 184] | 29.8 | 32.1 | 62.6 | 30 | 66.2 | 59.5 | 9.52 | 4.29
7 | CCc1cc(-c2oncc2-c2ccc(OC)cc2)c(O)cc1OC | 42.3 | 34.6 | 60 | 10 | 83.1 | 61.4 | 12.5 | 10
8 | CCCNC(=O)Nc1ccc(Oc2ncnc3cc(OC)c(OC)cc23)cc1Cl | 4.38 | 6.3 | 10.5 | 18.3 | 91.2 | 44.1 | 81.8 | 21.3
9 | O=C1NC(=O)C(c2ccccc2[N+](=O)[O-])=C1Nc1ccc(O)c(Cl)c1 | 10.4 | 16 | 13.6 | 14.4 | 52.1 | 28.4 | 12.1 | 8.56
10 | CN(C)S(=O)(=O)c1ccc2c(c1)/C(=C/c1cc3c([nH]1)CCCC3)C(=O)N2 | 61.3 | 61 | 60.1 | 59.3 | 51.1 | 24.7 | 41.8 | 10.8
11 | Cc1ccccc1C(C(=O)NC1CCCCC1)N(C(=O)CNc1ccc(C#N)cc1)c1cccc(F)c1 (stereo not given) | 18.3 | 14.3 | 15.7 | 14.5 | 28.5 | 25.3 | 22.5 | 22.4
12 | CC1=C(C(=O)Nc2cc3cn[nH]c3cc2F)C(c2ccc(C(F)(F)F)cc2)CC(=O)N1 (stereo not given) | 22.9 | 24.4 | 47.9 | 40.4 | 0.82 | 3.25 | 0 | 6.38
13 | CCNC(=O)Nc1ccc(Oc2ncnc(N)c2/C=N/OC)cc1Cl | 5.38 | 1.04 | 8.63 | 10 | 73.5 | 66.3 | 47.7 | 28
14 | Cc1nc2sccn2c(=O)c1CCN1CCC(=C(c2ccccc2)c2ccc(F)cc2)CC1 | 3.68 | 10.3 | 7.35 | 11.8 | 17.1 | 11.6 | 38.4 | 22.3
15 | CN(C1CCc2c(c3ccccc3n2CC(=O)O)C1)S(=O)(=O)c1ccc(F)cc1 (stereo not given) | 5.67 | 10.4 | 7.91 | 11.9 | 39.2 | 35.3 | 18.6 | 23.4
